# Data: the supplement of paper PMC7826260
# This is one part of the list. One pool of 16,384 single-stranded DNAs met each Rep nickase domain in vitro (3 µM enzyme, 1 h, 37 °C); shown is the middle of each 90-letter strand. Values are log2 of uncut reads against the no-enzyme pool; strong cutting gives strongly negative numbers. There is no active / inactive call. Counts are relative to all reads, so uncut sequences can rise above 0 when many others are cut.
# Test system: T1, Rep nickase domain of maize striate mosaic virus
# T1 sequence (residues 1-117 of Rep, tag left off): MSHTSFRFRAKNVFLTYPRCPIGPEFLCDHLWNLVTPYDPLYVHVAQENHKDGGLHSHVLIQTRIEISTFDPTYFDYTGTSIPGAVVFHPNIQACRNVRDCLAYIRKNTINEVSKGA
# Assay: uncleaved DNA left, log2 of reads against the no-enzyme library (log2 ratio); higher = less cleavage (more negative = more Rep cleavage of the k-mer); sequences stand for … in CTCGTCCG…ACCGGAGA
# Description: (§1)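 A pool of 90-nt single-stranded DNAs with seven random bases just before the constant AC of the nick site (name = the seven bases) was cut by 3 µM recombinant His6-SUMO-tagged Rep nickase domain (300 nM DNA, 50 mM HEPES pH 8.0, 50 mM NaCl, 1 mM MnCl2, 1 h, 37 °C, three replicates). Uncut DNA was amplified and sequenced.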
row,Sequence,uncleaved DNA left (log2)
1,ATTCTTC,-0.686
2,CACTGTC,-0.258
3,ATTCTAT,-0.608
4,AGGGGTT,1.86
5,CTTCATA,-0.631
6,GACGCTT,0.981
7,CGGCTGC,1.52
8,AAGAGCC,-0.422
9,GGGGGTA,2.18
10,AAAAAGA,-1.06
11,TCCGGAG,-0.506
12,CAGAGTC,-0.715
13,TAAACAC,-0.733
14,TGCCCCG,-0.88
15,TCTCATA,-0.36
16,AGAGTAG,-1.11
17,CAAGGAC,1.13
18,CATTATT,-2.44
19,AATGCCA,-0.491
20,ATTTCTA,-0.622

row,Sequence,uncleaved DNA left (log2)
1,GCAGACA,1.5
2,CATAAGG,0.131
3,CGATCGA,-0.758
4,GCGCGGA,0.109
5,CTGATCT,0.183
6,TTCATAA,-0.247
7,TAGGACC,0.682
8,GCCGCAA,-0.147
9,CTATCTT,-0.973
10,TAAATCC,-0.808
11,CCCCATG,-1.16
12,AGAAGTA,-0.223
13,GCCCTTA,0.921
14,TATCTTA,-0.218
15,ATAACGA,-1.08
16,CTTGGCG,-0.519
17,GCCTTTA,0.284
18,CCTTCGT,-1.08
19,TCCGGGG,1.71
20,CGCGTAG,-0.761

# Test system: T2, Rep nickase domain of porcine circovirus 2
# T2 sequence (residues 2-116 of Rep, tag left off): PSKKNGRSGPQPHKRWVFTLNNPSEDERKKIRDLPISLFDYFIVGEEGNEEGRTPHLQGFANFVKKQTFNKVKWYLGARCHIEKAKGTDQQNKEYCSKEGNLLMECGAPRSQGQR
# Assay: as above
# Description: as §1
row,Sequence,uncleaved DNA left (log2)
1,ATTCTTC,0.138
2,CACTGTC,-0.392
3,ATTCTAT,-0.586
4,AGGGGTT,0.179
5,CTTCATA,-0.063
6,GACGCTT,-0.3
7,CGGCTGC,0.0947
8,AAGAGCC,-0.0517
9,GGGGGTA,0.231
10,AAAAAGA,0.0704
11,TCCGGAG,-0.0178
12,CAGAGTC,-0.0208
13,TAAACAC,-0.0359
14,TGCCCCG,-0.0633
15,TCTCATA,0.000317
16,AGAGTAG,0.247
17,CAAGGAC,0.104
18,CATTATT,-4.12
19,AATGCCA,-0.0986
20,ATTTCTA,-0.332

row,Sequence,uncleaved DNA left (log2)
1,GCAGACA,0.195
2,CATAAGG,0.217
3,CGATCGA,0.0429
4,GCGCGGA,0.184
5,CTGATCT,-0.242
6,TTCATAA,-0.012
7,TAGGACC,0.0854
8,GCCGCAA,0.0445
9,CTATCTT,-2.92
10,TAAATCC,0.0445
11,CCCCATG,-0.0871
12,AGAAGTA,-0.125
13,GCCCTTA,0.218
14,TATCTTA,-0.265
15,ATAACGA,0.138
16,CTTGGCG,0.218
17,GCCTTTA,-0.0531
18,CCTTCGT,-0.0291
19,TCCGGGG,0.236
20,CGCGTAG,0.0508

# Test system: T3, Rep nickase domain of tomato golden mosaic virus
# T3 sequence (residues 1-124 of Rep, tag left off): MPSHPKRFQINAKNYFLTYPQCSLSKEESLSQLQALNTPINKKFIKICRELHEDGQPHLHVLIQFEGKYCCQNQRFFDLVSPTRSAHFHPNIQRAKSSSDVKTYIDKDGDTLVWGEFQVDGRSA
# Assay: as above
# Description: as §1
row,Sequence,uncleaved DNA left (log2)
1,ATTCTTC,0.0841
2,CACTGTC,-0.253
3,ATTCTAT,0.0176
4,AGGGGTT,0.259
5,CTTCATA,-0.0697
6,GACGCTT,0.12
7,CGGCTGC,0.0455
8,AAGAGCC,-0.00598
9,GGGGGTA,0.119
10,AAAAAGA,0.105
11,TCCGGAG,-0.000957
12,CAGAGTC,-0.0504
13,TAAACAC,-0.123
14,TGCCCCG,-0.156
15,TCTCATA,-0.0403
16,AGAGTAG,0.13
17,CAAGGAC,0.0829
18,CATTATT,-3.85
19,AATGCCA,0.0554
20,ATTTCTA,-0.0165

row,Sequence,uncleaved DNA left (log2)
1,GCAGACA,0.0975
2,CATAAGG,0.248
3,CGATCGA,-0.0422
4,GCGCGGA,0.116
5,CTGATCT,-0.0717
6,TTCATAA,0.103
7,TAGGACC,0.0511
8,GCCGCAA,-0.0921
9,CTATCTT,-0.781
10,TAAATCC,-0.173
11,CCCCATG,-0.163
12,AGAAGTA,0.151
13,GCCCTTA,0.23
14,TATCTTA,-0.125
15,ATAACGA,-0.0392
16,CTTGGCG,0.0211
17,GCCTTTA,-0.00829
18,CCTTCGT,-0.0727
19,TCCGGGG,0.0446
20,CGCGTAG,-0.0273

# Test system: T4, Rep nickase domain of tomato yellow leaf curl virus
# T4 sequence (residues 1-136 of Rep, tag left off): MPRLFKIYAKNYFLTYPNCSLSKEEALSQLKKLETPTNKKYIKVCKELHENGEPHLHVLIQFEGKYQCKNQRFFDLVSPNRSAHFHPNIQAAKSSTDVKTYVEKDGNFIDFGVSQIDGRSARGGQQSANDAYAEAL
# Assay: as above
# Description: as §1
row,Sequence,uncleaved DNA left (log2)
1,ATTCTTC,0.00745
2,CACTGTC,-0.187
3,ATTCTAT,-0.00972
4,AGGGGTT,-0.0863
5,CTTCATA,0.0494
6,GACGCTT,0.159
7,CGGCTGC,0.00191
8,AAGAGCC,-0.121
9,GGGGGTA,-0.0414
10,AAAAAGA,0.0156
11,TCCGGAG,-0.146
12,CAGAGTC,-0.0461
13,TAAACAC,0.0218
14,TGCCCCG,-0.00209
15,TCTCATA,-0.0982
16,AGAGTAG,0.129
17,CAAGGAC,0.0356
18,CATTATT,-0.126
19,AATGCCA,-0.044
20,ATTTCTA,0.0421

row,Sequence,uncleaved DNA left (log2)
1,GCAGACA,0.00531
2,CATAAGG,0.101
3,CGATCGA,-0.21
4,GCGCGGA,0.151
5,CTGATCT,0.0189
6,TTCATAA,0.0547
7,TAGGACC,0.179
8,GCCGCAA,-0.102
9,CTATCTT,0.0143
10,TAAATCC,0.0435
11,CCCCATG,-0.129
12,AGAAGTA,0.0785
13,GCCCTTA,0.21
14,TATCTTA,0.00248
15,ATAACGA,-0.108
16,CTTGGCG,0.116
17,GCCTTTA,0.0243
18,CCTTCGT,0.0607
19,TCCGGGG,-0.174
20,CGCGTAG,-0.0981

# Test system: T5, Rep nickase domain of wheat dwarf virus
# T5 sequence (residues 1-137 of Rep, tag left off): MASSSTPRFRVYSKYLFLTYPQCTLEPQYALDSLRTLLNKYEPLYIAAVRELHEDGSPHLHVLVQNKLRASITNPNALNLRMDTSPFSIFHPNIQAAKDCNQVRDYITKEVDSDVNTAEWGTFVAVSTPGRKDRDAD
# Assay: as above
# Description: as §1
row,Sequence,uncleaved DNA left (log2)
1,ATTCTTC,0.0246
2,CACTGTC,-0.0824
3,ATTCTAT,-0.0175
4,AGGGGTT,0.123
5,CTTCATA,-0.023
6,GACGCTT,0.0402
7,CGGCTGC,0.0325
8,AAGAGCC,-0.0183
9,GGGGGTA,0.12
10,AAAAAGA,0.0359
11,TCCGGAG,-0.102
12,CAGAGTC,0.0695
13,TAAACAC,-0.671
14,TGCCCCG,-0.229
15,TCTCATA,0.00233
16,AGAGTAG,-0.0341
17,CAAGGAC,0.108
18,CATTATT,-3.74
19,AATGCCA,-0.0877
20,ATTTCTA,0.0995

row,Sequence,uncleaved DNA left (log2)
1,GCAGACA,0.244
2,CATAAGG,0.13
3,CGATCGA,-0.0491
4,GCGCGGA,0.0788
5,CTGATCT,0.109
6,TTCATAA,-0.00614
7,TAGGACC,0.187
8,GCCGCAA,-0.191
9,CTATCTT,-0.509
10,TAAATCC,-0.929
11,CCCCATG,-0.295
12,AGAAGTA,0.114
13,GCCCTTA,0.169
14,TATCTTA,-0.0501
15,ATAACGA,-0.113
16,CTTGGCG,0.0323
17,GCCTTTA,0.0762
18,CCTTCGT,0.048
19,TCCGGGG,-0.114
20,CGCGTAG,-0.209
